Laboratory results as given in PubChem BioAssay AID1508624 (National Center for Advancing Translational Sciences (NCATS), 2021).
Hit rate of the full screen: of about 48,000 compounds, about 120 (0.25%) were called active. Not shown: some 4% with an inconclusive outcome. Calls follow the shape of the dose curve; as a rule, active = well fitted activation curve with a large enough effect; inconclusive = small, poorly fitted or top-dose-only effect, or another doubt; inactive = no such curve, though single readings can be large or run the other way. Some of the results follow.

assay: Primary qHTS for Identification of Small Molecule Activators of Huntingtin-Antisense Promoter Activity; conditions: HEK293 HTT-AS promoter firefly luciferase reporter, 24 h; series mostly up to 57.5 µM; activity change, positive = activation: at the top concentration; also: nearly all actives have a fitted effect of over 55% in size
Outline: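 HEK293 cells carrying firefly luciferase reporters were seeded at 2,500 per well in Opti-MEM and cultured for 24 h. They were then treated with compounds at up to 57.5 uM final for 24 h at 37 degrees C before Dual-Glo luminescence readout.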

Activity change, positive = activation, inactive:
CCn1cc2nc(SCc3ccccc3F)n(Cc3ccc(C)cc3)c(=O)c2n1 -6.59%, Cc1ccc(NC(=O)CCS(=O)(=O)c2cccc3nsnc23)c(C)c1 -18.9%, CCOc1ccc(NC(=O)CCS(=O)(=O)c2ccc3c(c2)n(C)c(=O)c(=O)n3C)cc1 -12.2%, CCOc1ccc(NC(=O)CSc2nc(-c3ccc(F)cc3)cc(C(F)(F)F)c2C#N)cc1 -5.02%, Cc1ccc2cccc(NC(=O)C(C)(C)Oc3ccc(Br)cc3)c2n1 -14.1%, CCOC(=O)c1ccccc1NC(=O)Cn1c2ncccc2c(=O)n1-c1ccccc1 7.89%, COC(=O)c1cc2occc2n1Cc1nc(-c2ccc(C)cc2)oc1C -10.5%, Cc1nc2c(C(=O)NC(C)c3ccccc3)cnn2c(C)c1Cc1ccccc1 (centres undefined) -54.4%, C[C@@]12O[C@@H](C[C@]1(O)CO)n1c3ccccc3c3c4c(c5c6ccccc6n2c5c31)CNC4=O -50%, CC1=C(CC(=O)O)c2cc(F)ccc2C1=Cc1ccc(S(C)=O)cc1 (centres undefined) -54.1%, CCC(=O)Nc1nnc(S(=O)(=O)N2CCc3ccccc32)s1 -19%, O=C(CCNS(=O)(=O)c1ccc2c(c1)CCN2C(=O)C1CC1)Nc1ccc(F)cc1F -27%, COc1ccc(N2CC(NC(=O)c3ccc(S(=O)(=O)N4CCCCC4)cc3)CC2=O)cc1OC (centres undefined) -29.1%, Cc1cccc(NC(=O)c2cc(S(=O)(=O)N3CCC4(CC3)OCCO4)ccc2F)c1 -18%, COc1cc(OC)cc(-c2nc3nc(C)c(CCC(=O)Nc4cc(F)ccc4F)c(C)n3n2)c1 -20.3%, CCOC(=O)c1ccc(NC(=O)Cn2cc(C(=O)c3ccc(Cl)cc3)c(=O)c3ccc(C)nc32)cc1 -29.1%, O=C(NCCc1csc(-c2ccc(F)cc2)n1)c1ccc(Br)o1 -21.2%, Cc1ccccc1CN1CCN(CC(=O)NCc2ccccc2Cl)C1=O 26.3%, CCSc1ncc(Cl)c(C(=O)Nc2c(C(=O)c3ccccc3)oc3ccccc23)n1 -2.75%, COc1ccc2oc(-c3ccc(C)c(NC(=O)Cc4ccc(Cl)cc4)c3)nc2c1 -5.09%, Cc1c(NC(=O)c2cc(=O)c3cc(Cl)ccc3o2)c(=O)n(-c2ccccc2)n1C 2.11% [at 11.5 µM, percent change from vehicle, -100% = no light], Cc1cccc(-c2nc(Cn3c(SCc4cccc(C(F)(F)F)c4)nc4ccncc43)c(C)o2)c1 -30.2%, Fc1ccc2c(c1)NC(c1ccncc1)=NC(c1cccs1)=N2 -4.84%, CCn1c(SCc2ccccc2F)nc(=O)c2c(C(=O)OC)cc(C3CC3)nc21 -42.3%, CCCNc1ccc(-c2nc(-c3ccncc3)no2)cc1[N+](=O)[O-] -3.26%, CCOc1ccc(-c2cc(C(=O)NCc3ccc(C)cc3)c3ccccc3n2)cc1 7.38%, Cc1cccc(N2CCN(C(=O)c3ccc(NC(=O)c4nsc5ccccc45)cc3)CC2C)c1 (centres undefined) -47%, CCOc1ccc(Cl)cc1C1CC(=O)Nc2cc(OC)c(OC)c(OC)c21 (centres undefined) 0.346%, NC(=O)C(c1ccccc1)(c1ccccc1)[C@@H]1CCN(CCc2ccc3c(c2)CCO3)C1 -7.28%, CCOC(=O)C1CCCN(C(=O)Cn2ncc3c([nH]c4ccc(C)cc43)c2=O)C1 (centres undefined) -17.1%, CCCC(CCC)C(=O)Nc1cccc(-c2cn3cccnc3n2)c1 6.12%, Cc1ccc(C)c(N2CCN(C(=O)c3ccc4[nH]c(C)c(C)c4c3)CC2)c1 -38.5%, CCOC(=O)c1ccc(NC(=O)C2CCN(S(=O)(=O)c3ccc(C)cc3)CC2)cc1 -8.43%, CC(=O)c1nn(-c2ccc(OC(F)(F)F)cc2)nc1Nc1ccc(C)cc1 -8.49%, COc1ccccc1CNC(=O)CS(=O)Cc1nc(-c2ccc(OC)c(OC)c2)oc1C (centres undefined) -16.6%, Cc1ccc(CCNC(=O)c2ccc(CSCc3ccccc3C)o2)cc1 -17.7%, CCCNCC(O)COc1ccccc1C(=O)CCc1ccccc1 (centres undefined), CCC1CN(C(=O)N2CCC(C(=O)O)CC2)c2cc(C)ccc2O1 (centres undefined) -2.59%, COc1ccc(Nc2cc(C)c3cc(NC(=O)Cc4c(F)cccc4Cl)ccc3n2)cc1 -29.8%, CCN(Cc1ccccc1)C(=O)C1CCN(S(=O)(=O)c2c(C)noc2/C=C/c2ccc(C)cc2)CC1 -27.4%, COc1ccccc1CNC(=O)c1sc2nc3n(c(=O)c2c1C)CCC3 10.2%, CCOc1ccc(CNS(=O)(=O)c2ccc(-c3cc(C(F)(F)F)on3)s2)cc1 -19.9%, COc1ccc(CCNC(=O)Cn2cc(S(=O)(=O)Cc3cccc(Cl)c3)c3ccccc32)cc1OC -17.7%, COc1ccc(-c2noc(CSc3nnc(-c4ccc(Cl)cc4)n3C)n2)cc1OC -17%, CCc1cnc2c(c1SCC(=O)Nc1cc(Cl)ccc1OC)c(=O)n(C)c(=O)n2C -12.3%, Cc1ccc(Cl)cc1NC(=O)CSc1nc(C)c(C)c(C)c1C#N -11.7%, CCOc1ccccc1NC(=O)CSc1nc2c(oc3ccccc32)c(=O)n1Cc1ccco1 -21.9%, CCOC(=O)c1cnc2c(C(F)(F)F)cccc2c1Nc1cccc(C(=O)OC)c1 -36.5%, Cc1ccc(CNC(=O)C2CCCN(S(=O)(=O)c3ccc4c(ccn4C)c3)C2)cc1 (centres undefined) 1.06%, CN1CCN(C(=O)Nc2cccc(Cl)c2)c2cccnc21 2.84%, CCCCN(CCCC)CCNC(=O)c1cc(=O)[nH]c2ccc(S(=O)(=O)N3CCCCCC3)cc12 -9.16%, CC(C)c1ccc(NC(=O)CSc2nc(=O)n(Cc3cccnc3)c3c2CCC3)cc1 -42.6%, CCc1ccc(CNC(=O)C2CCN(C(=O)N3CC(CC)Oc4ccc(C)cc43)CC2)cc1 (centres undefined) -31.8%, COc1ccccc1Nc1c2c(nc3ccc(NC(=O)c4cccc(F)c4)cc13)CCCC2 -93.5%, Cc1cc(C)c(NC(=O)CSc2ncc(S(=O)(=O)c3ccc(C(C)(C)C)cc3)c(=O)[nH]2)c(C)c1 -6.79%, O=C(NC1CCCC1)c1ccc2c(c1)N(Cc1ccccc1Cl)C(=O)c1ccccc1S2 -15.7%, Cc1ccc(OCc2nc(-c3ccc(C(=O)NCCc4ccc(S(N)(=O)=O)cc4)cc3)oc2C)cc1 -26%, COC(=O)c1c(NC(=O)CCCOc2ccccc2C)sc2c1CCC(C)C2 (centres undefined) 0.545%, COc1ccccc1CNC(=O)CN1C(=O)CCc2cc(S(=O)(=O)N3CCOCC3)ccc21 -4.48%
